# Measurements from the supplement of paper PMC11417369.
# The other results are listed elsewhere or left out.
# Test system: PfHDP1 homeodomain (GST-tagged)
# Assay: gcPBM binding intensity (ln(normalized median fluorescence intensity)); higher = stronger DNA binding
# In short: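 The binding buffer was 1× PBS containing 1% milk, 0.2 mg/ml BSA, 0.5% salmon testes DNA and 0.03% Triton X-100. In it, GST-tagged P. falciparum DNA-binding domains expressed in E. coli were applied for 1 h to an Agilent 4 × 180k array of primer-extended double-stranded 36-bp intergenic genomic probes plus negative controls. Binding intensity, read with Alexa488 anti-GST antibody and a 488 nm scan, is the highest Masliner-normalised natural-log median intensity across replicate spots of either probe orientation.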
row,Sequence,gcPBM binding intensity (ln)
1,ATATTTTTTATAAAATGTACTTATTATTAGAATATA [XGTACX_site2460],6.23
2,ACATATAAGTTATATACACACAATAATATGTAAATA [CACACA_site6766],6.62
3,TACAAAATATGGTAATAAAGTAGTTACATGAATTGG [XGTACX_negctrl_site522],6.26
4,ATGGAAATTTTATCATGTACATATACCGTTGAATAA [XGTACX_site5420],6.56
5,AATAAAAAAATTAAAATTAAAAAATTAAAACTTAAA [CACACA_negctrl_site987],5.6
6,TAACAAAATGTAAATAAACACACATATATATATATA [CACACA_site8352],9.22
7,TATTATATAATTTTAACACACAAGAATATAAACTTT [CACACA_site1363],6.28
8,TGAAGGAATACAGCTCGTACATGTGTAAAGAGATAA [XGTACX_site500],6.97
9,TAATTTAAATGATGTAGTACATATAAATATATCTAA [XGTACX_site262],5.93
10,AAAAAGAAAAAACTTACACACATATATACCCCCATG [CACACA_site4463],7.77
11,AACATTCTATGTTGCACACAAAGAGAAAAATTTATT [CACACA_site3995],9.13
12,ATTGATCTTTATTGTTGTACATTAAACGTTAATTTT [XGTACX_site1788],6.44
13,ACTATAAATATATACACATGCGCACACACAAGTGGG [TGCATGCA_site432],7.51
14,TACCTATAAAAGTACACACACACACGGATATAAATA [CACACA_site6569],6.96
15,TAATTTATTGTACGTGCATGCTATTTTTTATTTTTA [TGCATGCA_site1059],7.51
16,TTGTAATATATAAAAGTGCATATATGGTTCCATATA [GTGCAC_site9544],7.68
17,ATATGTGAATAAAAATGTACGTGTTCTTTTTTTTTT [XGTACX_site320],6.15
18,AACAAAAAAACAAACACACACACACCCATATATATA [CACACA_site3652],7.1
19,TCATACATTTTCCTTGCACACATTTATAATTAATGT [CACACA_site614],8.95
20,TTAAAAAATATATGCGTGCACTAATATTTCATATGC,9.22
21,TGAATTAACAAATAGACACACATATATATATATATA [CACACA_site3195],9.26
22,TACTATTTTTATAATACACACATATATTTGTGATAT [CACACA_site1775],7

row,Sequence,gcPBM binding intensity (ln)
1,ACCATTTGTACTTACGCACACATAAAATATATATAT [CACACA_site1545],8.06
2,TCAAAAATTTATATAGTGCAATATATATATAATGTA,9.93
3,TGTGGCCCTGCGAGGTGGTCATCATGAATACGAAAA [XGTACX_site1526],5.74
4,AACCAGTTGATGTGTACACATATAGTAATAATTTTA [CACACA_site5564],7.35
5,GTATTAATTTTAAGGTGTACGCAAAAAATTTAATTT [XGTACX_site718],6.46
6,ATATATTTTTTTTATACATGCAATGCATTTACGTTG [TGCATGCA_site565],7.15
7,TTTTTTTTTTTTTGAACACACATTATTAATTTTTAT [CACACA_site308],6.3
8,TTTTTTATATATTAGGAATTTATAAAATTAGAAGGT [GTGCAC_negctrl_site617],7.61
9,AACCAATATGCGTATACACACATAAATATAAATATA [CACACA_site3780],6.67
10,AATAGAATAATCCTTACACACACACCCACACGAATA [CACACA_site8053],7.05
11,TGTATAAAAAGAAAAAATCGTATGTGTTATCAAAAA [GTGCAC_negctrl_site490],6.32
12,ACGATTCAAAGGGAATATAAAATATTATTATCTATA [CACACA_negctrl_site1739],6.06
13,AAAAAAAAAAAAAAAAAAAAAAAAAAAAATAAAAAA [CACACA_negctrl_site59],6.93
14,AAAATATTTAATAGAAGTACACATGTATATATACAT [XGTACX_site8942],6.35
15,TATATTAACAAAATGGTGCAATAATTTCTATATTGT [GTGCAC_site9430],10.4
16,TGTGTAAGCACATACAAACACACAACCTTATTTTTA [CACACA_site2187],6.47
17,TTATTATATTAAAAGAGGACACATTTATTTTTTTTT [XGTACX_site1241],5.87
18,ATATATATATATATATGTACATAATATATTATATAT [XGTACX_site924],9.25
19,TTATTATATACAAAATGTACACAGAATAATTTGAAT [XGTACX_site2314],6.21
20,TTTTTTTTTTTTTTGGTGCAGTTCACATATTATATA [GTGCAC_site9996],7.51
21,AGATCATAATATTATACACACATTATATATCTGTAA [CACACA_site4925],6.85
22,TAATAAATTCAAAACATAAAAAGGAAAAAAAAAAAA [CACACA_negctrl_site1330],6.04

row,Sequence,gcPBM binding intensity (ln)
1,TGAATACAGATATTCACACAAATAGTTTTGATATAT [CACACA_site5527],6.14
2,TAATATCTTGAGTCATCACACATTGATTAATGAATC [CACACA_site5735],5.88
3,AAAAAAATATATAATAGTACATATATAGGAATATAT [XGTACX_site4591],6.16
4,CTTTTTTTTTTTTTTGCACACACATATATAAATATA [CACACA_site3950],10.6
5,AGTGGAAATTTTATTTGTACATAAATATTTACATAC [XGTACX_site633],6.2
6,ATTTTTTTTTAATGCAATATATTTTGAAAATTTTAT [CACACA_negctrl_site753],7.02
7,TTTTTTTTTTTTTTTACACACTTTATTCAAACAACT [CACACA_site4104],6.64
8,ATATATATATATATTTGTACTTAATTGATTTTACTT [XGTACX_site2663],9.1
9,ATGCGTTTAGCAAAAAGTACATATATATATAATATT [XGTACX_site1928],6.5
10,TTGAAATACTTTATTTGTACATATAGCAAAGTGTAT [XGTACX_site8782],6.5
11,ATTTTTTCTAGACATGCATGTGAAATTTACTTTTTT [TGCATGCA_site305],6.37
12,ATTATTGATTTATAAACACACACTCGAAGATGTTTA [CACACA_site8294],6.44
13,CTTTCTCTCAAAATGACATGCAATTTGTTTCTTTTT [TGCATGCA_site169],6.52
14,AATATGGAATGAAATAACAATCGGGAGTATATTACC [CACACA_negctrl_site93],6.85
15,TATATATATGTTCTTACACACACGAATATATATATG [CACACA_site3304],6.7
16,ACATATTGTAGATATTGTACATATTGTGTATATATT [XGTACX_site7620],6.8
17,TTGGCATACAGACACACACACACACCCCCACATATA [CACACA_site590],7.22
18,ATTGATACATCCAATACACACTACATATTATGATGT [CACACA_site6965],6.6
19,AATTTATTAAAAAAATGTACTTATTTTTTTGTATAA [XGTACX_site5844],6.09
20,TTTTTTTTTTTTTTTTTTTTTTTTTCATATTAATAT [GTGCAC_negctrl_site351],6.13
21,TTAATATTTTGATGTGTACACATTAAAATAGTTTTA [CACACA_site5712],6.36
22,TAAATATATATATGGTGTACCATTTTGGGTTAATAT [XGTACX_site2706],6.63

row,Sequence,gcPBM binding intensity (ln)
1,GGGAGGATATTTCACAGTACCCAGGAAATCTGCGGA [XGTACX_site2555],6.37
2,TATATTATTTTTTATTGTACTTAAAAATATTATTTG [XGTACX_site1443],6.16
3,TTAAATAGCTGTAATTGTACAAATAAATACATAAAT [XGTACX_site3097],6.69
4,TATAGTAATATTTGAAGTACAAAATTAAAATAAATA [XGTACX_site7634],6.29
5,TTATATAAGGTCTATATATAAATATTAATGATAAGG [TGCATGCA_negctrl_site354],6.58
6,TATAAATAATTATATTGTACTCTTTATATTTTTCTT [XGTACX_site5335],6.53
7,AGAAGTTTATCTTTTAGTACGCATAAAAAAAAAAAA [XGTACX_site2359],6.69
8,TTTTATGCTCAATTATTAAGAAATACTTTTTCTTCC [XGTACX_negctrl_site208],9.78
9,ATATTTTTTTTTCTTTCGCACACGTGAAAGAATTTC [CACACA_site8636],7.03
10,AAAATAAAAATTAACTGTACATACATTATTCAAATT [XGTACX_site6106],6.11
11,TACAAACAAACACATAGCAATATATGTTATCAAAAA [XGTACX_negctrl_site1],6.32
12,AAGGAAATAATTAAATGTACAAAAAAAAAAAAAATT [XGTACX_site562],6.27
13,TTTTTTTTGTTATGAACATGCAAATTAAAATATAAT [TGCATGCA_site954],6.42
14,TAAATACATAAAAATTGTACACATTGTTTTCTCTTT [XGTACX_site6435],6.49
15,TACTTTTCTTAAAGATGTACGTTTTAAAAATAAAAT [XGTACX_site14],6.08
16,CAACAATTTCGTCATACACACATTCAGAATATATAT [CACACA_site2370],6.74
17,TCCTTATTTTGCAGGAGTACCATTTTTTAAAAATAC [XGTACX_site5968],6.67
18,ACAATTACTTATTTTAATTTTTTTAATCTATTGATT [CACACA_negctrl_site967],6.1
19,AATAACAATTATAAAAGTACAGATTTTTATTTCTAA [XGTACX_site5746],6
20,ATTTATAATTTTTGAGCACACACAAGCATATATATA [CACACA_site8531],7.09
21,ACAATGATAGTGTAAAGTACATATATATAAAAAAAT [XGTACX_site5928],7.13
22,TGAACTCATAGGAAAACACACATATGTGCAATATAT [CACACA_site6231],11.3
